In patent US20240358826A1 (ORIONIS BIOSCIENCES, published 2024):

T1: IL-1R (IL-1 Receptor) (UniProt P14778 18-569, limits assumed)
T1 sequence (looked up): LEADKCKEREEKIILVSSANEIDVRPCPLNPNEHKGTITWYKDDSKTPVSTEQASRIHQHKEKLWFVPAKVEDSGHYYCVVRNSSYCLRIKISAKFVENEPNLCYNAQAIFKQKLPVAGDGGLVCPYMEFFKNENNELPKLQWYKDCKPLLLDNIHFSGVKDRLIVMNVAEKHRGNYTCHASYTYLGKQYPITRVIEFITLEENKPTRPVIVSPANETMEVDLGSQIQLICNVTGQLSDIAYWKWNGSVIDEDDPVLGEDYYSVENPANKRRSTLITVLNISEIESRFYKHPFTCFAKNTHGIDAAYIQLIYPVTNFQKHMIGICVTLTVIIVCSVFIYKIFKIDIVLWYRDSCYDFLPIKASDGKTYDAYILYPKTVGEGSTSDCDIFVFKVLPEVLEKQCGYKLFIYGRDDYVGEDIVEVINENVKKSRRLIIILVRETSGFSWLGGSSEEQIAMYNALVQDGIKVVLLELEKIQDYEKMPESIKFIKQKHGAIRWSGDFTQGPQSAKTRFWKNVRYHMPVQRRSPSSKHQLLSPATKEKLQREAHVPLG


Biological target: T1, IL-1R (IL-1 Receptor)
Test: cell-based or functional assay

| Binder | NF-KB signal, -CD8 cells, 1 ng/ml | NF-KB signal, -CD8 cells, 10 ng/ml | NF-KB signal, -CD8 cells, 100 ng/ml | NF-KB signal, -CD8 cells, 1000 ng/ml |
| --- | --- | --- | --- | --- |
| CD8 VHH_5GGS_Fc_hole + Fc-knob_20GGS_IL1α delta 1-6_A44G (Fc fusion) chain 1: DVQLQESGGGLVQPGGSLRLSCAASGSIFSINVMGWYRQTPGKERELVAKITNFGITSYADSAQGRFTISRGNAKNTVYLQMNSLKPEDTAVYYCNLDTTGWGPPPYQYWGQGTQVTVSSGGSGGSGGSGGSGGSDKTHTCPPCPAPEAAGGPSVFLFPPKPKDTLMISRTPEVTCVVVDVSHEDPEVKFNWYVDGVEVHNAKTKPREEQYNSTYRVVSVLTVLHQDWLNGKEYKCQVSNKALPAPIEKTISKAKGQPREPQVCTLPPSRDELTKNQVSLSCAVKGFYPSDIAVEWESNGQPENNYKTTPPVLDSDGSFFLVSKLTVDKSRWQQGNVFSCSVMHEALHNHYTQKSLSLSPGK chain 2: [letters of human IgG1 Fc with changes not shown]GGSGGSGGSGGSGGSGGSGGSGGSGGSGGSGGSGGSGGSGGSGGSGGSGGSGGSGGSGGSLSNVKYNFMRIIKYEFILNDALNQSIIRANDQYLTAAGLHNLDEAVKFDMGAYKSSKDDAKITVILRISKTQLYVTAQDEDQPVLLKEMPEIPKTITGSETNLLFFWETHGTKNYFTSVAHPNLFIATKQDYWVCLAGGPPSITDFQILENQA | 0.01 rel. to 100 ng/ml IL1α | 0.02 rel. to 100 ng/ml IL1α | 0.11 rel. to 100 ng/ml IL1α | – |
| CD8 VHH_5GGS_Fc_hole + Fc-knob_20GGS_IL1α delta 1-6_H46G (Fc fusion) chain 1: DVQLQESGGGLVQPGGSLRLSCAASGSIFSINVMGWYRQTPGKERELVAKITNFGITSYADSAQGRFTISRGNAKNTVYLQMNSLKPEDTAVYYCNLDTTGWGPPPYQYWGQGTQVTVSSGGSGGSGGSGGSGGSDKTHTCPPCPAPEAAGGPSVFLFPPKPKDTLMISRTPEVTCVVVDVSHEDPEVKFNWYVDGVEVHNAKTKPREEQYNSTYRVVSVLTVLHQDWLNGKEYKCQVSNKALPAPIEKTISKAKGQPREPQVCTLPPSRDELTKNQVSLSCAVKGFYPSDIAVEWESNGQPENNYKTTPPVLDSDGSFFLVSKLTVDKSRWQQGNVFSCSVMHEALHNHYTQKSLSLSPGK chain 2: [letters of human IgG1 Fc with changes not shown]GGSGGSGGSGGSGGSGGSGGSGGSGGSGGSGGSGGSGGSGGSGGSGGSGGSGGSGGSGGSLSNVKYNFMRIIKYEFILNDALNQSIIRANDQYLTAAALGNLDEAVKFDMGAYKSSKDDAKITVILRISKTQLYVTAQDEDQPVLLKEMPEIPKTITGSETNLLFFWETHGTKNYFTSVAHPNLFIATKQDYWVCLAGGPPSITDFQILENQA | 0.01 rel. to 100 ng/ml IL1α | 0.01 rel. to 100 ng/ml IL1α | 0.02 rel. to 100 ng/ml IL1α | 0.31 rel. to 100 ng/ml IL1α |
| CD8 VHH_5GGS_Fc_hole + Fc-knob_20GGS_IL1α delta 1-6_A44S (Fc fusion) chain 1: DVQLQESGGGLVQPGGSLRLSCAASGSIFSINVMGWYRQTPGKERELVAKITNFGITSYADSAQGRFTISRGNAKNTVYLQMNSLKPEDTAVYYCNLDTTGWGPPPYQYWGQGTQVTVSSGGSGGSGGSGGSGGSDKTHTCPPCPAPEAAGGPSVFLFPPKPKDTLMISRTPEVTCVVVDVSHEDPEVKFNWYVDGVEVHNAKTKPREEQYNSTYRVVSVLTVLHQDWLNGKEYKCQVSNKALPAPIEKTISKAKGQPREPQVCTLPPSRDELTKNQVSLSCAVKGFYPSDIAVEWESNGQPENNYKTTPPVLDSDGSFFLVSKLTVDKSRWQQGNVFSCSVMHEALHNHYTQKSLSLSPGK chain 2: [letters of human IgG1 Fc with changes not shown]GGSGGSGGSGGSGGSGGSGGSGGSGGSGGSGGSGGSGGSGGSGGSGGSGGSGGSGGSGGSLSNVKYNFMRIIKYEFILNDALNQSIIRANDQYLTAASLHNLDEAVKFDMGAYKSSKDDAKITVILRISKTQLYVTAQDEDQPVLLKEMPEIPKTITGSETNLLFFWETHGTKNYFTSVAHPNLFIATKQDYWVCLAGGPPSITDFQILENQA | 0.01 rel. to 100 ng/ml IL1α | 0.02 rel. to 100 ng/ml IL1α | 0.12 rel. to 100 ng/ml IL1α | 0.97 rel. to 100 ng/ml IL1α |
| CD8 VHH_5GGS_Fc_hole + Fc-knob_20GGS_IL1α delta 1-6_A44H (Fc fusion) chain 1: DVQLQESGGGLVQPGGSLRLSCAASGSIFSINVMGWYRQTPGKERELVAKITNFGITSYADSAQGRFTISRGNAKNTVYLQMNSLKPEDTAVYYCNLDTTGWGPPPYQYWGQGTQVTVSSGGSGGSGGSGGSGGSDKTHTCPPCPAPEAAGGPSVFLFPPKPKDTLMISRTPEVTCVVVDVSHEDPEVKFNWYVDGVEVHNAKTKPREEQYNSTYRVVSVLTVLHQDWLNGKEYKCQVSNKALPAPIEKTISKAKGQPREPQVCTLPPSRDELTKNQVSLSCAVKGFYPSDIAVEWESNGQPENNYKTTPPVLDSDGSFFLVSKLTVDKSRWQQGNVFSCSVMHEALHNHYTQKSLSLSPGK chain 2: [letters of human IgG1 Fc with changes not shown]GGSGGSGGSGGSGGSGGSGGSGGSGGSGGSGGSGGSGGSGGSGGSGGSGGSGGSGGSGGSLSNVKYNFMRIIKYEFILNDALNQSIIRANDQYLTAAHLHNLDEAVKFDMGAYKSSKDDAKITVILRISKTQLYVTAQDEDQPVLLKEMPEIPKTITGSETNLLFFWETHGTKNYFTSVAHPNLFIATKQDYWVCLAGGPPSITDFQILENQA | 0.01 rel. to 100 ng/ml IL1α | 0.02 rel. to 100 ng/ml IL1α | 0.18 rel. to 100 ng/ml IL1α | 1.03 rel. to 100 ng/ml IL1α |
| CD8 VHH_5GGS_Fc_hole + Fc-knob_20GGS_IL1α delta 1-6_A58G (Fc fusion) chain 1: DVQLQESGGGLVQPGGSLRLSCAASGSIFSINVMGWYRQTPGKERELVAKITNFGITSYADSAQGRFTISRGNAKNTVYLQMNSLKPEDTAVYYCNLDTTGWGPPPYQYWGQGTQVTVSSGGSGGSGGSGGSGGSDKTHTCPPCPAPEAAGGPSVFLFPPKPKDTLMISRTPEVTCVVVDVSHEDPEVKFNWYVDGVEVHNAKTKPREEQYNSTYRVVSVLTVLHQDWLNGKEYKCQVSNKALPAPIEKTISKAKGQPREPQVCTLPPSRDELTKNQVSLSCAVKGFYPSDIAVEWESNGQPENNYKTTPPVLDSDGSFFLVSKLTVDKSRWQQGNVFSCSVMHEALHNHYTQKSLSLSPGK chain 2: [letters of human IgG1 Fc with changes not shown]GGSGGSGGSGGSGGSGGSGGSGGSGGSGGSGGSGGSGGSGGSGGSGGSGGSGGSGGSGGSLSNVKYNFMRIIKYEFILNDALNQSIIRANDQYLTAAALHNLDEAVKFDMGGYKSSKDDAKITVILRISKTQLYVTAQDEDQPVLLKEMPEIPKTITGSETNLLFFWETHGTKNYFTSVAHPNLFIATKQDYWVCLAGGPPSITDFQILENQA | 0.02 rel. to 100 ng/ml IL1α | 0.02 rel. to 100 ng/ml IL1α | 0.1 rel. to 100 ng/ml IL1α | 0.83 rel. to 100 ng/ml IL1α |
| CD8 VHH_5GGS_Fc_hole + Fc-knob_20GGS_IL1α delta 1-6_A44N (Fc fusion) chain 1: DVQLQESGGGLVQPGGSLRLSCAASGSIFSINVMGWYRQTPGKERELVAKITNFGITSYADSAQGRFTISRGNAKNTVYLQMNSLKPEDTAVYYCNLDTTGWGPPPYQYWGQGTQVTVSSGGSGGSGGSGGSGGSDKTHTCPPCPAPEAAGGPSVFLFPPKPKDTLMISRTPEVTCVVVDVSHEDPEVKFNWYVDGVEVHNAKTKPREEQYNSTYRVVSVLTVLHQDWLNGKEYKCQVSNKALPAPIEKTISKAKGQPREPQVCTLPPSRDELTKNQVSLSCAVKGFYPSDIAVEWESNGQPENNYKTTPPVLDSDGSFFLVSKLTVDKSRWQQGNVFSCSVMHEALHNHYTQKSLSLSPGK chain 2: [letters of human IgG1 Fc with changes not shown]GGSGGSGGSGGSGGSGGSGGSGGSGGSGGSGGSGGSGGSGGSGGSGGSGGSGGSGGSGGSLSNVKYNFMRIIKYEFILNDALNQSIIRANDQYLTAANLHNLDEAVKFDMGAYKSSKDDAKITVILRISKTQLYVTAQDEDQPVLLKEMPEIPKTITGSETNLLFFWETHGTKNYFTSVAHPNLFIATKQDYWVCLAGGPPSITDFQILENQA | 0.01 rel. to 100 ng/ml IL1α | 0.01 rel. to 100 ng/ml IL1α | 0.12 rel. to 100 ng/ml IL1α | 0.86 rel. to 100 ng/ml IL1α |
| CD8 VHH_5GGS_Fc_hole + Fc-knob_20GGS_IL1α delta 1-6_H46A (Fc fusion) chain 1: DVQLQESGGGLVQPGGSLRLSCAASGSIFSINVMGWYRQTPGKERELVAKITNFGITSYADSAQGRFTISRGNAKNTVYLQMNSLKPEDTAVYYCNLDTTGWGPPPYQYWGQGTQVTVSSGGSGGSGGSGGSGGSDKTHTCPPCPAPEAAGGPSVFLFPPKPKDTLMISRTPEVTCVVVDVSHEDPEVKFNWYVDGVEVHNAKTKPREEQYNSTYRVVSVLTVLHQDWLNGKEYKCQVSNKALPAPIEKTISKAKGQPREPQVCTLPPSRDELTKNQVSLSCAVKGFYPSDIAVEWESNGQPENNYKTTPPVLDSDGSFFLVSKLTVDKSRWQQGNVFSCSVMHEALHNHYTQKSLSLSPGK chain 2: [letters of human IgG1 Fc with changes not shown]GGSGGSGGSGGSGGSGGSGGSGGSGGSGGSGGSGGSGGSGGSGGSGGSGGSGGSGGSGGSLSNVKYNFMRIIKYEFILNDALNQSIIRANDQYLTAAALANLDEAVKFDMGAYKSSKDDAKITVILRISKTQLYVTAQDEDQPVLLKEMPEIPKTITGSETNLLFFWETHGTKNYFTSVAHPNLFIATKQDYWVCLAGGPPSITDFQILENQA | 0.01 rel. to 100 ng/ml IL1α | 0.02 rel. to 100 ng/ml IL1α | 0.01 rel. to 100 ng/ml IL1α | 0.23 rel. to 100 ng/ml IL1α |
